Reference: EP4620974A1 (Oricell Therapeutics Co., Ltd., dated 2025)
Numbering of substitutions follows the chain as printed.

Biological target: T1, human AFP158-166/HLA-A02*01* complex (human)
T1 construct: Soluble complex used as analyte in BLI; source and construct not described; also called AFP/HLA02; human AFP158 peptide/MHC complex
Assay: BLI (ForteBio AHC sensor), antibody captured, complex in solution

B1: No.3 (a VHH-Fc antibody containing the nucleotide sequence of the VHH antibody No.3) (Fc fusion)
chain: EVQLVESGGGLVQPGGSLRLSCAASGRTFSSYAMGWFRQAPGKGRELVAAISRTGGSTYYPDSVEGRFTISRDNAKRMVYLQMNSLRAEDTAVYYCAADLYYGPIITEGNYDYWGQGTQVTVSSAAA[human IgG1 Fc omitted here]
Kd: 0.259 nM
koff: 1.15e-05 s⁻¹
kon: 44200 M⁻¹ s⁻¹

B2: No.4 (a VHH-Fc antibody containing the nucleotide sequence of the VHH antibody No.4) (Fc fusion)
chain: B1 chain with R27S, T28I, S31T
Kd: 0.783 nM
koff: 3.38e-05 s⁻¹
kon: 43200 M⁻¹ s⁻¹

B3: No.7 (VHH-Fc antibody of the VHH antibody No. 7) (Fc fusion)
chain: B1 chain with F29L, S31R, D112N
Kd: 1.16 nM
koff: 6.17e-05 s⁻¹
kon: 53400 M⁻¹ s⁻¹

B4: No.8 (VHH-Fc antibody of the VHH antibody No. 8) (Fc fusion)
chain: B1 chain with R27D, F29L, S31R, D112N
Kd: 1.43 nM
koff: 9.33e-05 s⁻¹
kon: 65300 M⁻¹ s⁻¹

B5: No.29 (a VHH-Fc antibody containing the nucleotide sequence of the VHH antibody No.29) (Fc fusion)
chain: B1 chain with R27N, Q82H, D112N
Kd: 0.811 nM
koff: 6.16e-05 s⁻¹
kon: 75900 M⁻¹ s⁻¹

B6: 1B3 (a VHH-Fc antibody containing the nucleotide sequence of the VHH antibody 1B3) (Fc fusion)
chain: EVQLVESGGGLVQPGGSLRLSCAASGFTFSNYVMGWFRQAPGKGRELVATISPSGGSTFYPDSVEGRFTISRDNAKRMVYLQMNSLRAEDTAVYYCAAKDIYRPALDYDYWGQGTQVTVSSAAA[human IgG1 Fc omitted here]
notes: also called candidate VHH-Fc antibody 1B3
Kd: 0.504 nM
koff: 7.01e-05 s⁻¹
kon: 139000 M⁻¹ s⁻¹

B7: 1C11 (a VHH-Fc antibody containing the nucleotide sequence of the VHH antibody 1C11) (Fc fusion)
chain: B1 chain with F29L, S31R
notes: also called candidate VHH-Fc antibody 1C11
Kd: 1.21 nM
koff: 0.00012 s⁻¹
kon: 99400 M⁻¹ s⁻¹

B8: 1C4 (a VHH-Fc antibody containing the nucleotide sequence of the VHH antibody 1C4) (Fc fusion)
chain: B1 chain with S31R
notes: also called candidate VHH-Fc antibody 1C4
Kd: 0.865 nM
koff: 8.72e-05 s⁻¹
kon: 101000 M⁻¹ s⁻¹

B9: 1D12 (a VHH-Fc antibody containing the nucleotide sequence of the VHH antibody 1D12) (Fc fusion)
chain: B1 chain with F29L, S31P, D112N
notes: also called candidate VHH-Fc antibody 1D12
Kd: 3.02 nM
koff: 0.000274 s⁻¹
kon: 90700 M⁻¹ s⁻¹

B10: No.17 (a VHH-Fc antibody containing the nucleotide sequence of the VHH antibody No.17) (Fc fusion)
chain: EVQLVESGGGLVQPGGSLRLSCAASGLIFSNDYMGWFRQAPGKGRELVATISTRGGTYYPHNVEGRFIIIRDNDKRMVYLLMNSLRAEDTAVYYCAADSIIGYATEYYYCCQGSKVTVSSAAA[human IgG1 Fc omitted here]
Kd: < 0.001 nM
koff: < 1e-07 s⁻¹
kon: 67500 M⁻¹ s⁻¹

B11: 2F9 (a VHH-Fc antibody containing the nucleotide sequence of the VHH antibody 2F9) (Fc fusion)
chain: EVQLVESGGGLVQPGGSLRLSCAASGRILSRYAMGWFRQAPGKGRELVATISARGSSTYYPDSVEGRFTISRDNAKRMVYLQMNSLRAEDTAVYYCAANDITYTQATYDYWGQGTQVTVSSAAA[human IgG1 Fc omitted here]
notes: also called candidate VHH-Fc antibody 2F9
Kd: 2.06 nM
koff: 0.00018 s⁻¹
kon: 87500 M⁻¹ s⁻¹

B12: No.24 (a VHH-Fc antibody containing the nucleotide sequence of the VHH antibody No.24) (Fc fusion)
chain: B11 chain with R54S, S56G, S57T, N99A, T102Y, Y103S, T104S, Q105D, T107D, D109N
Kd: < 0.001 nM
koff: < 1e-07 s⁻¹
kon: 42800 M⁻¹ s⁻¹

B13: No.15 (VHH-Fc antibody of the VHH antibody No. 15) (Fc fusion)
chain: EVQLVESGGGLVQPGGSLRLSCAASGLIFSRYYMGWFRQAPGKGRELVAGITRSGGGTYYPDSVEGRFTISRDNAKRMVYLQMNSLRAEDTAVYYCAAEPAGYYQENYDYWGQGTQVTVSSAAA[human IgG1 Fc omitted here]
Kd: 2 nM
koff: 0.000412 s⁻¹
kon: 206000 M⁻¹ s⁻¹
